In patent publication US11178870B2 (priority 2017, dated 2021):

Assays:
[1] = test system: Phytophthora infestans; assay type: in vivo; settings: for Test F control value (late blight on tomato): class of control value, Table 7
[2] = test system: Colletotrichum orbiculare; settings: for Test H control value (anthracnose on cucumber): 250 ppm spray, 2.5 ml/pot, investigated 6 to 10 days after inoculation
[3] = test system: Magnaporthe grisea; assay type: in vivo; settings: class of control value, Table 7

| Compound | control value, Test F (late blight on tomato) ([1]; Table 7, Test F) | control value, Test H (anthracnose on cucumber) ([2]; 250 ppm sprayed (2.5 ml/pot) before inoculation, assessed 6 to 10 days after inoculation) | Test F control value (late blight on tomato) [1] | Test H control value (anthracnose on cucumber) [2] | Test A control value (blast on rice) [3] |
| --- | --- | --- | --- | --- | --- |
| Cc1cnn(-c2cc(Cl)c(=O)n(CC(F)F)c2-c2ccc(F)cc2Cl)c1Cl [Compound 343] | L (L shows the control value of 50% or less) | H (H shows the control value more than 50%) | – | – | – |
| CCn1c(-c2ccc(Br)cc2F)c(-n2cc(C)cn2)ccc1=O [Compound 485] | – | – | L (L shows the control value of 50% or less) | L (L shows the control value of 50% or less) | L (L shows the control value of 50% or less) |
| CCn1c(-c2ccccc2F)c(-n2cc(F)cn2)ccc1=O [Compound 382] | – | – | L (L shows the control value of 50% or less) | H (H shows the control value more than 50%) | H (H shows the control value more than 50%) |
| O=c1ccc(-c2ccsc2)c(-c2c(F)cccc2F)n1CC(F)F [Compound 493] | – | – | L (L shows the control value of 50% or less) | L (L shows the control value of 50% or less) | H (H shows the control value more than 50%) |
| Cc1cc(F)ccc1-c1c(-n2ncc(C)c2Cl)cc(Br)c(=O)n1C [Compound 514] | – | – | L (L shows the control value of 50% or less) | H (H shows the control value more than 50%) | H (H shows the control value more than 50%) |
| CCn1c(-c2c(F)cccc2F)c(-c2sc(Br)cc2C)cc(Br)c1=O [Compound 388] | – | – | L (L shows the control value of 50% or less) | L (L shows the control value of 50% or less) | H (H shows the control value more than 50%) |
| Cn1c(-c2ccc(F)cc2Cl)c(-n2cc(Cl)cn2)cc(Cl)c1=O [Compound 452] | – | – | L (L shows the control value of 50% or less) | H (H shows the control value more than 50%) | H (H shows the control value more than 50%) |
| CN1C(=O)CCC(c2ccsc2Br)=C1c1c(F)cccc1F [Compound 454] | – | – | L (L shows the control value of 50% or less) | H (H shows the control value more than 50%) | L (L shows the control value of 50% or less) |
| Nn1c(-c2c(F)cccc2F)c(-c2ccsc2Cl)cc(Br)c1=O [Compound 399] | – | – | L (L shows the control value of 50% or less) | L (L shows the control value of 50% or less) | L (L shows the control value of 50% or less) |
| Cn1c(-c2ccc(F)cc2Cl)c(-n2cc(F)cn2)ccc1=O [Compound 481] | – | – | L (L shows the control value of 50% or less) | L (L shows the control value of 50% or less) | L (L shows the control value of 50% or less) |
| CCn1c(-c2c(F)cccc2F)c(-c2sc(Cl)cc2Cl)cc(Cl)c1=O [Compound 396] | – | – | L (L shows the control value of 50% or less) | L (L shows the control value of 50% or less) | H (H shows the control value more than 50%) |
| O=c1c(Cl)cc(-n2cc(F)cn2)c(-c2ccc(F)cc2Br)n1CC(F)F [Compound 448] | – | – | L (L shows the control value of 50% or less) | L (L shows the control value of 50% or less) | H (H shows the control value more than 50%) |
| Cc1cnn(-c2cc(Br)c(=O)n(C)c2-c2ccccc2F)c1Cl [Compound 490] | – | – | L (L shows the control value of 50% or less) | H (H shows the control value more than 50%) | H (H shows the control value more than 50%) |
| CCn1c(-c2ccc(N3CCCC3)cc2F)c(-n2ncc(C)c2Cl)cc(Br)c1=O [Compound 466] | – | – | L (L shows the control value of 50% or less) | L (L shows the control value of 50% or less) | H (H shows the control value more than 50%) |
| O=c1c(Cl)cc(-c2cc(Br)sc2Cl)c(-c2c(F)cccc2F)n1CC(F)F [Compound 403] | – | – | L (L shows the control value of 50% or less) | L (L shows the control value of 50% or less) | H (H shows the control value more than 50%) |
| CCn1c(-c2ccccc2F)c(-n2cc(F)cn2)cc(Br)c1=O [Compound 384] | – | – | L (L shows the control value of 50% or less) | H (H shows the control value more than 50%) | H (H shows the control value more than 50%) |
